Laboratory results from the RNAGym collection of RNA variant scans (doi:10.7554/elife.90254).
The source gives no read counts; variants with many changes may rest on few reads.

B1: LINE1-mini (parent)
chain: GGCAGAGCUCAACACAGCGUGGCAAAGUGGCUGUGGCUAGACUGCC

Variants of: B1
Test: self-cleavage, relative activity (ratio to wild type); higher = more cleavage; in vitro, sequencing; the parent is a self-cleaving ribozyme

Variant | self-cleavage
C3A C18G G21U | 0.18
C3A C18G G40A | 0.18
C3A C18G U20G G36U A39C C46U | 0.13
C3A C18U A24C | 0.07
C3A C18U A24G | 0.09
C3A C18U G30C G33U | 0.11
C3A C18U U20A U34A | 0.07
C3A C23A G30U | 0.9
C3A C23G A24G G33C G40U | 0.01
C3A C23U A24G G44A | 0.52
C3A C23U G44A C45U | 0.63
C3A C37G G40C | 0.11
C3A C42A U43C | 1.05
C3A G5A A6U A12G G29U G30U U34G C42G C45U | 0.26
C3A G5A C10G C15A C46A | 0.05
C3A G5A C23A A41G C42A | 0.74
C3A G5A G7U A12C A25U A26U G33C G36C | 0.14
C3A G5A U9G G17A | 0.37
C3A G5C A14G G19A U32C | 0.16
C3A G5C C8A G19U A24U C42A | 0.62
C3A G5C C13A A26G G27A | 0.15
C3A G5C C15A C45A | 0.09
C3A G5C G7A C8A G19C G21A G40C C45A | 0.08
C3A G5C G7U C23A | 0.08

Variant | self-cleavage
C3A G5C G17C G21C U38C A41G | 0.01
C3A G5U A11C G27C C31U | 0
C3A G5U A14U G27U U38A C46A | 0.48
C3A G5U A14U U20C A41U | 0.22
C3A G5U A24U A39C C46A | 0.29
C3A G5U A25U C46G | 0.1
C3A G5U A26G U32A G40U | 0.07
C3A G5U C10A U38C | 0.05
C3A G5U C13G G17U G27A C42A | 0.12
C3A G5U C15U C31A | 0.03
C3A G5U C18G C31U | 0.02
C3A G5U C18U C23U | 0.4
C3A G5U G7A U9C U20G A39G | 0.02
C3A G5U G40U | 0.15
C3A G5U U9A C10G G17C | 0.05
C3A G5U U9C | 0.07
C3A G7A A11C C18U C31U C37U C42G G44A | 0
C3A G7A A25G G33A | 0.12
C3A G7A A41C | 0.27
C3A G7A G30C | 0.44
C3A G7A G30U C46U | 0.8
C3A G7A U28G C31G | 0.12
C3A G7C A11C G17U U34C | 0.04
C3A G7C A39C | 0.12

Variant | self-cleavage
C3A G7C C8G A41C | 0.42
C3A G7C C18G C42U U43G | 0.09
C3A G7C C18U C46A | 0.04
C3A G7C G17C | 0.07
C3A G7C G21U | 0.06
C3A G7C G30A | 0.08
C3A G7U A25G G27A C31U G35A G40U A41U | 0.04
C3A G7U G36C C45G | 0.07
C3A G7U U9G | 0.32
C3A G7U U9G A11G C37U | 0.15
C3A G7U U38A | 0.06
C3A G17A C46A | 0.14
C3A G17A G19U A41C | 0.09
C3A G17A G27U U34C | 0.06
C3A G17A G40A | 0.18
C3A G17A U28C G30A G35C | 0.15
C3A G17C G22C C42U G44C C45A | 0.1
C3A G17U C31U | 0.09
C3A G17U G30C | 1.22
C3A G17U G30U G40U | 0.15
C3A G17U U20C G30A | 0.57
C3A G19A A25C G29C U34A | 0.12
C3A G19A A41C U43C | 0.06
C3A G19A G21A C23U U43C | 0.44

Variant | self-cleavage
C3A G19A G35A | 0.16
C3A G19C C23A | 0.04
C3A G19C G36U C45U | 0.34
C3A G19C U43A | 0.11
C3A G19U A24C C31A U43A | 0.04
C3A G19U A24U G30A U43C | 0.07
C3A G19U C42G | 0.02
C3A G19U C42U | 0.02
C3A G21A C23U U34A C42G G44A | 0.2
C3A G21A G22A A26C C46A | 0.57
C3A G21A G35C G36U | 0.35
C3A G21A G36A | 2.91
C3A G21C U28C U34A | 0.12
C3A G21C U38A C46G | 0.2
C3A G22C C23U A25C | 0.16
C3A G22C G27C U32G C37U | 0.27
C3A G22C G36C G44C | 0.03
C3A G22U C31U | 0.12
C3A G27C C42A C45U | 0.06
C3A G27C G44U | 0.96
C3A G27C U38A | 0.17
C3A G27U G29U | 0.25
C3A G29A G30A | 0.23
C3A G29A G35U | 0.18

Variant | self-cleavage
C3A G29C A39U | 0.11
C3A G29U C37U C46G | 0.02
C3A G29U U38A | 0.26
C3A G30A C42G | 0.13
C3A G30C U32C G40U C46U | 0.15
C3A G33A U34C | 0.26
C3A G33C G35C | 0.02
C3A G33C U38C | 0.03
C3A G33U C37G | 0.18
C3A G35A C42A | 0.07
C3A G35C C42A G44A | 0.11
C3A G35U C37A | 0.23
C3A G36C C42U | 0.69
C3A G36U G40U | 0.08
C3A G40A C42G U43C | 0.04
C3A G40C C42U | 0.05
C3A G40U A41U | 0.21
C3A U9A A16U G19U | 0.08
C3A U9A A25U G33U U38C C42A | 0.38
C3A U9A C13A G22A U34A | 1.44
C3A U9C A11C G19U U20G | 0
C3A U9G A11C G17A C23A C31A G36U | 0.01
C3A U9G A12U U32C G35A | 0.47
C3A U9G C10G A26U U28C U32C | 0.01

Variant | self-cleavage
C3A U9G C15U G33C | 0.56
C3A U9G G17C | 0.01
C3A U9G G17U G44C C46U | 0.01
C3A U9G G30C | 0.21
C3A U20C C23A G29A A39G | 0.82
C3A U20G C37A | 0.14
C3A U20G C37A G44A | 0.11
C3A U20G G30U C31A | 0.13
C3A U32C C45G | 0.07
C3A U32G U43A | 0.11
C3A U34A A39U | 0.01
C3A U34C G44A | 0.42
C3A U38A C42U | 0.04
C3G A4C C15U G27A G33U U38C A39G | 0.49
C3G A4C G5C A12U C31G | 0.03
C3G A4C G5C G21U | 0.07
C3G A4C G7A C8U | 0.82
C3G A4C G27U | 0.07
C3G A4G A12U G17U G29U | 0.1
C3G A4G A16G | 0.01
C3G A4G C8U G21A C31G A39C G40U | 0.05
C3G A4G C13G U28G C42G | 0.21
C3G A4G G5U U32C G35A C37A U43A | 0.02
C3G A4G G7U C8G U9A | 0.12

Variant | self-cleavage
C3G A4G G21U G27C | 0.04
C3G A4U A6G U28A | 0.03
C3G A4U A11G G30C U34A | 0.03
C3G A4U A26G C42G | 0.01
C3G A4U A26U | 0.09
C3G A4U C15U A25U A26U G40C | 0.27
C3G A4U C31A G33U | 0.03
C3G A4U G21A G22U C31U C46A | 0.02
C3G A6C A16C G22U C31U | 0.03
C3G A6C C18U G21A U32C C45U C46A | 0.28
C3G A6C G21C C23U A24U C45G | 0.03
C3G A6C G22A G40U | 0.07
C3G A6G C15A G17C A25U G30A G40A U43A | 0.07
C3G A6U A24C U28A C31A U34C | 0.05
C3G A6U A24U C46U | 0.83
C3G A6U C13A G21A G30C A39U C45A | 0.05
C3G A11C A14U C15A U28G G30A G36A | 0.02
C3G A11C G17C | 0.04
C3G A11C G33U | 0.02
C3G A11G A25U G30C A39G | 0.01
C3G A11G C15A | 0.06
C3G A11G C15A A26G U34C | 0.01
C3G A11G G17U G40A | 0.03
